Reference: the supplement of paper PMC4967469

Experiments:
FK866 = compound: O=C(/C=C/c1cccnc1)NCCCCC1CCN(C(=O)c2ccccc2)CC1 [FK866]; experiment: Viability of human cancer cell lines after 72 h of drug (GDSC screen); conditions: top dose 1 µM; top dose inferred
Method: (§1)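 Human cancer cell lines in 384-well plates, medium with 10% serum, drug for 72 h over a 256-fold dose range (nine 2-fold or five 4-fold steps up to the top dose). Adherent lines were fixed and stained with the nucleic acid dye Syto60, suspension lines read with resazurin; signal relative to control wells, capped at 0 and 100%. One two-parameter sigmoid per drug and line, fitted in a mixed model over all curves with the slope shared within a line.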

FR-180204 = compound: Nc1[nH]nc2nnc(-c3c(-c4ccccc4)nn4ccccc34)cc12 [FR-180204]; experiment: as above; conditions: top dose 20 µM; top dose inferred
Method: as §1

Cell Line: KCL-22 (chronic myeloid leukaemia, suspension)
- AUC (FK866): 0.026
- IC50 (FK866): < 3.91 nM
- AUC (FR-180204): 0.961
- IC50 (FR-180204): > 20000 nM

Cell Line: KE-37 (lymphoblastic leukaemia, suspension)
- AUC (FK866): 0.019
- IC50 (FK866): < 3.91 nM
- AUC (FR-180204): 0.971
- IC50 (FR-180204): > 20000 nM

Cell Line: KELLY (neuroblastoma, adherent)
- AUC (FK866): 0.024
- IC50 (FK866): < 3.91 nM
- AUC (FR-180204): 0.946
- IC50 (FR-180204): > 20000 nM

Cell Line: KG-1 (acute myeloid leukaemia, suspension)
- AUC (FK866): 0.046
- IC50 (FK866): < 3.91 nM
- AUC (FR-180204): 0.913
- IC50 (FR-180204): > 20000 nM

Cell Line: KGN (ovary, adherent)
- AUC (FK866): 0.957
- IC50 (FK866): > 1000 nM
- AUC (FR-180204): 0.971
- IC50 (FR-180204): > 20000 nM

Cell Line: KINGS-1 (glioma, adherent)
- AUC (FK866): 0.934
- IC50 (FK866): > 1000 nM
- AUC (FR-180204): 0.979
- IC50 (FR-180204): > 20000 nM

Cell Line: KLE (endometrium, adherent)
- AUC (FK866): 0.844
- IC50 (FK866): > 1000 nM
- AUC (FR-180204): 0.909
- IC50 (FR-180204): > 20000 nM

Cell Line: KM12 (large intestine, adherent)
- AUC (FK866): 0.79
- IC50 (FK866): 488 nM
- AUC (FR-180204): 0.951
- IC50 (FR-180204): > 20000 nM

Cell Line: KM-H2 (Hodgkin lymphoma, suspension)
- AUC (FK866): 0.08
- IC50 (FK866): < 3.91 nM
- AUC (FR-180204): 0.987
- IC50 (FR-180204): > 20000 nM

Cell Line: KMH-2 (thyroid, adherent)
- AUC (FK866): 0.98
- IC50 (FK866): > 1000 nM
- AUC (FR-180204): 0.99
- IC50 (FR-180204): > 20000 nM

Cell Line: KMOE-2 (acute myeloid leukaemia, suspension)
- AUC (FK866): 0.025
- IC50 (FK866): < 3.91 nM
- AUC (FR-180204): 0.985
- IC50 (FR-180204): > 20000 nM

Cell Line: KMRC-1 (kidney, adherent)
- AUC (FK866): 0.884
- IC50 (FK866): > 1000 nM
- AUC (FR-180204): 0.987
- IC50 (FR-180204): > 20000 nM

Cell Line: KMRC-20 (kidney, adherent)
- AUC (FK866): 0.923
- IC50 (FK866): > 1000 nM
- AUC (FR-180204): 0.989
- IC50 (FR-180204): > 20000 nM

Cell Line: KMS-11 (myeloma, suspension)
- AUC (FK866): 0.056
- IC50 (FK866): < 3.91 nM
- AUC (FR-180204): 0.95
- IC50 (FR-180204): > 20000 nM

Cell Line: KNS-42 (glioma, adherent)
- AUC (FK866): 0.824
- IC50 (FK866): 750 nM
- AUC (FR-180204): 0.976
- IC50 (FR-180204): > 20000 nM

Cell Line: KNS-81-FD (glioma, adherent)
- AUC (FK866): 0.891
- IC50 (FK866): > 1000 nM
- AUC (FR-180204): 0.977
- IC50 (FR-180204): > 20000 nM

Cell Line: KON (head and neck, adherent)
- AUC (FK866): 0.282
- IC50 (FK866): 15.3 nM
- AUC (FR-180204): 0.987
- IC50 (FR-180204): > 20000 nM

Cell Line: KOPN-8 (B-cell leukaemia, suspension)
- AUC (FK866): 0.018
- IC50 (FK866): < 3.91 nM
- AUC (FR-180204): 0.956
- IC50 (FR-180204): > 20000 nM

Cell Line: KOSC-2 (head and neck, adherent)
- AUC (FK866): 0.124
- IC50 (FK866): < 3.91 nM
- AUC (FR-180204): 0.985
- IC50 (FR-180204): > 20000 nM

Cell Line: KP-2 (pancreas, adherent)
- AUC (FK866): 0.8
- IC50 (FK866): 531 nM
- AUC (FR-180204): 0.963
- IC50 (FR-180204): > 20000 nM

Cell Line: KP-4 (pancreas, adherent)
- AUC (FK866): 0.393
- IC50 (FK866): 32.1 nM
- AUC (FR-180204): 0.987
- IC50 (FR-180204): > 20000 nM

Cell Line: KP-N-YN (neuroblastoma, adherent)
- AUC (FK866): 0.039
- IC50 (FK866): < 3.91 nM
- AUC (FR-180204): 0.967
- IC50 (FR-180204): > 20000 nM

Cell Line: KS-1 (glioma, adherent)
- AUC (FK866): 0.759
- IC50 (FK866): 431 nM
- AUC (FR-180204): 0.971
- IC50 (FR-180204): > 20000 nM

Cell Line: KU812 (chronic myeloid leukaemia, suspension)
- AUC (FK866): 0.15
- IC50 (FK866): 5.93 nM
- AUC (FR-180204): 0.988
- IC50 (FR-180204): > 20000 nM

Cell Line: KU-19-19 (bladder, adherent)
- AUC (FK866): 0.047
- IC50 (FK866): < 3.91 nM
- AUC (FR-180204): 0.987
- IC50 (FR-180204): > 20000 nM

Cell Line: KURAMOCHI (ovary, adherent)
- AUC (FK866): 0.792
- IC50 (FK866): 535 nM
- AUC (FR-180204): 0.958
- IC50 (FR-180204): > 20000 nM

Cell Line: KY821 (leukaemia, suspension)
- AUC (FK866): 0.986
- IC50 (FK866): > 1000 nM
- AUC (FR-180204): 0.986
- IC50 (FR-180204): > 20000 nM

Cell Line: KYAE-1 (oesophagus, suspension)
- AUC (FK866): 0.204
- IC50 (FK866): 7.44 nM
- AUC (FR-180204): 0.928
- IC50 (FR-180204): > 20000 nM

Cell Line: KYM-1 (rhabdomyosarcoma, adherent)
- AUC (FK866): 0.124
- IC50 (FK866): 5.18 nM
- AUC (FR-180204): 0.991
- IC50 (FR-180204): > 20000 nM

Cell Line: KYSE-50 (oesophagus, adherent)
- AUC (FK866): 0.989
- IC50 (FK866): > 1000 nM
- AUC (FR-180204): 0.976
- IC50 (FR-180204): > 20000 nM

Cell Line: KYSE-70 (oesophagus, adherent)
- AUC (FK866): 0.429
- IC50 (FK866): 39.3 nM
- AUC (FR-180204): 0.983
- IC50 (FR-180204): > 20000 nM

Cell Line: KYSE-180 (oesophagus, adherent)
- AUC (FK866): 0.138
- IC50 (FK866): 4.91 nM
- AUC (FR-180204): 0.987
- IC50 (FR-180204): > 20000 nM

Cell Line: KYSE-220 (oesophagus, adherent)
- AUC (FK866): 0.089
- IC50 (FK866): < 3.91 nM
- AUC (FR-180204): 0.945
- IC50 (FR-180204): > 20000 nM

Cell Line: KYSE-270 (oesophagus, adherent)
- AUC (FK866): 0.021
- IC50 (FK866): < 3.91 nM
- AUC (FR-180204): 0.96
- IC50 (FR-180204): > 20000 nM

Cell Line: KYSE-450 (oesophagus, adherent)
- AUC (FK866): 0.973
- IC50 (FK866): > 1000 nM
- AUC (FR-180204): 0.988
- IC50 (FR-180204): > 20000 nM

Cell Line: KYSE-510 (oesophagus, adherent)
- AUC (FK866): 0.076
- IC50 (FK866): < 3.91 nM
- AUC (FR-180204): 0.986
- IC50 (FR-180204): > 20000 nM

Cell Line: KYSE-520 (oesophagus, adherent)
- AUC (FK866): 0.696
- IC50 (FK866): 272 nM
- AUC (FR-180204): 0.982
- IC50 (FR-180204): > 20000 nM

Cell Line: L-363 (myeloma, suspension)
- AUC (FK866): 0.241
- IC50 (FK866): 12.7 nM
- AUC (FR-180204): 0.985
- IC50 (FR-180204): > 20000 nM

Cell Line: L-428 (Hodgkin lymphoma, suspension)
- AUC (FK866): 0.126
- IC50 (FK866): 5.05 nM
- AUC (FR-180204): 0.993
- IC50 (FR-180204): > 20000 nM

Cell Line: L-540 (Hodgkin lymphoma, suspension)
- AUC (FK866): 0.07
- IC50 (FK866): < 3.91 nM
- AUC (FR-180204): 0.982
- IC50 (FR-180204): > 20000 nM

Cell Line: L-1236 (Hodgkin lymphoma, suspension)
- AUC (FK866): 0.181
- IC50 (FK866): 8.5 nM
- AUC (FR-180204): 0.988
- IC50 (FR-180204): > 20000 nM

Cell Line: LAMA-84 (chronic myeloid leukaemia, suspension)
- AUC (FK866): 0.964
- IC50 (FK866): > 1000 nM
- AUC (FR-180204): 0.834
- IC50 (FR-180204): 13200 nM

Cell Line: LAN-6 (neuroblastoma, adherent)
- AUC (FK866): 0.64
- IC50 (FK866): 165 nM
- AUC (FR-180204): 0.962
- IC50 (FR-180204): > 20000 nM

Cell Line: LB373-MEL-D (melanoma, adherent)
- AUC (FK866): 0.907
- IC50 (FK866): > 1000 nM
- AUC (FR-180204): 0.98
- IC50 (FR-180204): > 20000 nM

Cell Line: LB771-HNC (head and neck, adherent)
- AUC (FK866): 0.632
- IC50 (FK866): 158 nM
- AUC (FR-180204): 0.968
- IC50 (FR-180204): > 20000 nM

Cell Line: LB831-BLC (bladder, adherent)
- AUC (FK866): 0.744
- IC50 (FK866): 318 nM
- AUC (FR-180204): 0.981
- IC50 (FR-180204): > 20000 nM

Cell Line: LB996-RCC (kidney, adherent)
- AUC (FK866): 0.905
- IC50 (FK866): > 1000 nM
- AUC (FR-180204): 0.978
- IC50 (FR-180204): > 20000 nM

A lower IC50 marks a more sensitive line; fits outside the tested doses are given as limits. For AUC the same curve is integrated over the 256-fold range of doses and scaled to a fraction; it is 1 without any effect and falls as sensitivity rises. The top dose, if marked as inferred, is not printed in the source and was worked back from the curve model.
